Sequences with one replicate were seen in a single cluster, so their values are uncertain.
Tested on: ATP
Assay: switch fluorescence ratio, 500 uM ATP over buffer (Cy3 cluster intensity, sum of 5 cycles each) (fold (ratio)); higher = stronger signal-on switching upon ATP binding; sequences stand for … in TCGTCGGCAGCGTCAGATGTGTATAAGAGACAGTTTTTTTTTTTTTTTTTTTTTTTTT…TC
Settings: aptamer strand: ATP DNA aptamer (quencher-CACCTGGGGGAGTATTGCGGAGGAAGG + anchor), 100 nM annealed; ATP concentration: 500 uM; one replicate
Procedure, shortened: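 Cy3-labelled switching-strand clusters on a modified Illumina MiSeq flow-cell were annealed to 100 nM quencher-labelled ATP aptamer and imaged first in selection buffer, then after 15 min with 500 uM ATP at 22 °C. NaOH stripping and re-annealing separated each of five buffer/ATP cycles, and clusters outside 100-1000 RFU were excluded. The fluorescence ratio sums target-cycle Cy3 intensity over buffer-cycle Cy3 intensity per cluster and averages it per switch-domain sequence.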
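Also: ATP exposure 15 min at 22 °C before imaging.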

Sequence: AGTTCTTGCC
- switch fluorescence ratio: 1.03

Sequence: GTGGAGGAAA
- switch fluorescence ratio: 1.04

Sequence: AGAAACGTGG
- switch fluorescence ratio: 1.02

Sequence: TAGAGGAACA
- switch fluorescence ratio: 0.983

Sequence: GCGTTTCTCT
- switch fluorescence ratio: 0.983

Sequence: TAGTTCCTCT
- switch fluorescence ratio: 1.01

Sequence: GGGCAGGAGG
- switch fluorescence ratio: 0.971

Sequence: GCGCTCTGCG
- switch fluorescence ratio: 1.04

Sequence: TAGGAGACGG
- switch fluorescence ratio: 0.942

Sequence: GCTGACGAAG
- switch fluorescence ratio: 1.04

Sequence: GGCGTAACGG
- switch fluorescence ratio: 1.02

Sequence: TCGCAAAGAT
- switch fluorescence ratio: 1.42

Sequence: CGTATGATGA
- switch fluorescence ratio: 1.01

Sequence: AAGCAATTTT
- switch fluorescence ratio: 1.04

Sequence: TTTGAGTAGC
- switch fluorescence ratio: 0.953

Sequence: TAGCTTGTCC
- switch fluorescence ratio: 0.971

Sequence: AACAGGATTA
- switch fluorescence ratio: 1.01

Sequence: TGGCCGGAAA
- switch fluorescence ratio: 1.07

Sequence: GGAGAAATAC
- switch fluorescence ratio: 4.16

Sequence: AATTTACGGT
- switch fluorescence ratio: 1.06

Sequence: AGGAGGGAGG
- switch fluorescence ratio: 1.01

Sequence: TGGCCAACCG
- switch fluorescence ratio: 1.04

Sequence: ATTCTAGGAT
- switch fluorescence ratio: 0.945

Sequence: TAGCCCATAC
- switch fluorescence ratio: 1.55

Sequence: GTGTAGGCTC
- switch fluorescence ratio: 1

Sequence: ATTAAAGT
- switch fluorescence ratio: 1

Sequence: ACCTTCGTCG
- switch fluorescence ratio: 2.12

Sequence: CGGTAGGGCA
- switch fluorescence ratio: 0.974

Sequence: GCTGCAGAAT
- switch fluorescence ratio: 0.996

Sequence: TGAGTATGTG
- switch fluorescence ratio: 1.07

Sequence: TTGCCAGTAT
- switch fluorescence ratio: 1.01

Sequence: GAGTATCGTC
- switch fluorescence ratio: 0.921

Sequence: TTTTGTTTAA
- switch fluorescence ratio: 1.02

Sequence: CGTCTAGTTA
- switch fluorescence ratio: 1.01

Sequence: ACAAAGGCGT
- switch fluorescence ratio: 1.03

Sequence: CTAGGTAGAA
- switch fluorescence ratio: 1.02

Sequence: TCAAGCGCGA
- switch fluorescence ratio: 1.14

Sequence: AGTTCAGTGG
- switch fluorescence ratio: 1.03

Sequence: TAAAGGGCGG
- switch fluorescence ratio: 1.17

Sequence: TACGCTCTA
- switch fluorescence ratio: 1.04

Sequence: GGTGCGCAGG
- switch fluorescence ratio: 0.954

Sequence: GCTAGCACGG
- switch fluorescence ratio: 0.98

Sequence: TACCTGCTGG
- switch fluorescence ratio: 1.07

Sequence: TGAGACAGTT
- switch fluorescence ratio: 0.969

Sequence: ATTCCTTCTA
- switch fluorescence ratio: 1.02

Sequence: CCCCGGTCGG
- switch fluorescence ratio: 1.15

Sequence: GGGTGCCCAG
- switch fluorescence ratio: 0.987

Sequence: CATAAGACTT
- switch fluorescence ratio: 0.996

Sequence: CCACTCCTGG
- switch fluorescence ratio: 1.07

Sequence: ACGTACTTTT
- switch fluorescence ratio: 1.19

Sequence: TAACGTTTGG
- switch fluorescence ratio: 0.994

Sequence: CCACGATTTT
- switch fluorescence ratio: 0.968

Sequence: TGCACTTCGG
- switch fluorescence ratio: 1.01

Sequence: CGCGGAATTT
- switch fluorescence ratio: 0.998

Sequence: TTAGACTGTA
- switch fluorescence ratio: 0.995

Sequence: GGATCAGCTT
- switch fluorescence ratio: 1.01

Sequence: AAGGGCTT
- switch fluorescence ratio: 1.02

Sequence: GCGGTGTTTG
- switch fluorescence ratio: 0.961

Sequence: ATGGAAATGT
- switch fluorescence ratio: 0.987

Sequence: CGGTTCAGCT
- switch fluorescence ratio: 1.22

Sequence: GGCTTTGGGC
- switch fluorescence ratio: 1

Sequence: TCCAATGGTA
- switch fluorescence ratio: 0.975

Sequence: GGCCCGAACT
- switch fluorescence ratio: 1.01

Sequence: CTGTACTTTG
- switch fluorescence ratio: 1.07

Sequence: TAGGGTGGGT
- switch fluorescence ratio: 1.01

Sequence: GCTTTTTTCA
- switch fluorescence ratio: 1.01

Sequence: AATGCTTTAT
- switch fluorescence ratio: 1.01

Sequence: ACAGATAAGC
- switch fluorescence ratio: 1

Sequence: AGAGAGAGCC
- switch fluorescence ratio: 1.01

Sequence: GGATCTCAAG
- switch fluorescence ratio: 0.997

Sequence: TAAATAAGAA
- switch fluorescence ratio: 0.965

Sequence: TGAAGCATC
- switch fluorescence ratio: 1.29

Sequence: AATGCACGGG
- switch fluorescence ratio: 1.19

Sequence: GTGTCAACA
- switch fluorescence ratio: 0.996

Sequence: GATGAGTCGT
- switch fluorescence ratio: 1.01

Sequence: GGGATCACGC
- switch fluorescence ratio: 1.04

Sequence: CGCTTGTCGC
- switch fluorescence ratio: 0.999

Sequence: TTGCCCAGG
- switch fluorescence ratio: 2.69

Sequence: CGTTCGGGAC
- switch fluorescence ratio: 1.22

Sequence: ACTTCTCCCG
- switch fluorescence ratio: 1.52

Sequence: ATATGGGGTC
- switch fluorescence ratio: 1.04

Sequence: TACTCGTGGG
- switch fluorescence ratio: 0.958

Sequence: GTAGTAAATT
- switch fluorescence ratio: 1.08

Sequence: CTTCCAAACG
- switch fluorescence ratio: 1.61

Sequence: TTACTGCAAA
- switch fluorescence ratio: 1.11

Sequence: GCACAAAAGA
- switch fluorescence ratio: 0.954

Sequence: TGGCAGTAGT
- switch fluorescence ratio: 1.03

Sequence: GTTGAGACGA
- switch fluorescence ratio: 0.953

Sequence: TTAGTAGGGA
- switch fluorescence ratio: 0.975

Sequence: CTCGTGGAA
- switch fluorescence ratio: 1.05

Sequence: TACTAGACGA
- switch fluorescence ratio: 1.22

Sequence: GACTTTCCTA
- switch fluorescence ratio: 1.08

Sequence: ACAAGAAGAT
- switch fluorescence ratio: 1.02

Sequence: GGAACATGA
- switch fluorescence ratio: 0.983

Sequence: TGTGACTGTT
- switch fluorescence ratio: 1.03

Sequence: CCTGCAAAAG
- switch fluorescence ratio: 2.84

Sequence: GTTTGTGTCT
- switch fluorescence ratio: 0.914

Sequence: CTCTATTGCA
- switch fluorescence ratio: 1.05

Sequence: TGTCATAGCC
- switch fluorescence ratio: 0.978

Sequence: CAGCCGTGCT
- switch fluorescence ratio: 1.03

Sequence: GTTATTGTGA
- switch fluorescence ratio: 0.986

Sequence: ACCTGTTTG
- switch fluorescence ratio: 0.991

Sequence: GGATTTACAA
- switch fluorescence ratio: 0.98

Sequence: TACCAAGTGC
- switch fluorescence ratio: 1.11

Sequence: ATCGAATACG
- switch fluorescence ratio: 1.02

Sequence: AATGAGTCA
- switch fluorescence ratio: 0.984

Sequence: TCTGGTACTC
- switch fluorescence ratio: 1.09

Sequence: CTTGATAGAG
- switch fluorescence ratio: 1.02

Sequence: TCCGTATTAA
- switch fluorescence ratio: 1.59

Sequence: TGATTGCCT
- switch fluorescence ratio: 1.04

Sequence: TTAATAGAGA
- switch fluorescence ratio: 1.02

Sequence: TTTCCCGATA
- switch fluorescence ratio: 1.01

Sequence: GAGGGTTAGA
- switch fluorescence ratio: 1

Sequence: GAGTTAGTTC
- switch fluorescence ratio: 0.947

Sequence: CAGGTAGGT
- switch fluorescence ratio: 0.994

Sequence: GTATAGGGGG
- switch fluorescence ratio: 0.99

Sequence: CGCTTTCTGT
- switch fluorescence ratio: 1.04

Sequence: AAGGCCTACA
- switch fluorescence ratio: 1.01

Sequence: GTGAATGAAG
- switch fluorescence ratio: 1.02

Sequence: GGGGCGCTAT
- switch fluorescence ratio: 1.1

Sequence: ATCACCGTGT
- switch fluorescence ratio: 1.05

Sequence: CTTGTCAGTC
- switch fluorescence ratio: 1.02

Sequence: GGGAGTCGGC
- switch fluorescence ratio: 1.07

Sequence: CAAAGGCCGT
- switch fluorescence ratio: 0.908

Sequence: TAGGCCCTTT
- switch fluorescence ratio: 1

Sequence: CCTTACAAGC
- switch fluorescence ratio: 1.87

Sequence: CGTTTTGCGC
- switch fluorescence ratio: 1.04

Sequence: AATGTCATCT
- switch fluorescence ratio: 0.988

Sequence: AAACGTAGGT
- switch fluorescence ratio: 1.03

Sequence: TCTCCTTTGT
- switch fluorescence ratio: 0.96

Sequence: ATCCGTGTTG
- switch fluorescence ratio: 0.995

Sequence: CGCCTAATAA
- switch fluorescence ratio: 1.04

Sequence: GCATGGGATG
- switch fluorescence ratio: 1.07

Sequence: CACCAATCTC
- switch fluorescence ratio: 1.19

Sequence: ATGCAATCTG
- switch fluorescence ratio: 1.14

Sequence: GCTTCGGGGT
- switch fluorescence ratio: 0.983

Sequence: TTGCTGCCCT
- switch fluorescence ratio: 0.955

Sequence: TAGTTCGCTG
- switch fluorescence ratio: 0.974

Sequence: TATCACGAG
- switch fluorescence ratio: 0.965

Sequence: TTCGTCTGGA
- switch fluorescence ratio: 0.971

Sequence: TATACCCGCG
- switch fluorescence ratio: 1.08

Sequence: TCGGTCATAT
- switch fluorescence ratio: 0.999

Sequence: AAGCCCGGAT
- switch fluorescence ratio: 1.04

Sequence: CCTGGGGCCT
- switch fluorescence ratio: 1.03

Sequence: GTTCGTTG
- switch fluorescence ratio: 1.03

Sequence: CATTAGGGTA
- switch fluorescence ratio: 0.977

Sequence: AGCAATGTGG
- switch fluorescence ratio: 1.2

Sequence: TGTATTCGCT
- switch fluorescence ratio: 0.983

Sequence: TCGGGCTCTT
- switch fluorescence ratio: 1

Sequence: CATAAAAAG
- switch fluorescence ratio: 1.02

Sequence: TTACTTTGTA
- switch fluorescence ratio: 1.03

Sequence: CTGTTGGACG
- switch fluorescence ratio: 0.964

Sequence: CAAATTGTAA
- switch fluorescence ratio: 1.01

Sequence: TTATGAAAAG
- switch fluorescence ratio: 0.976

Sequence: GATTGTGTTG
- switch fluorescence ratio: 0.983

Sequence: CTCTGACTAT
- switch fluorescence ratio: 1.15

Sequence: TGATGGGACA
- switch fluorescence ratio: 0.952

Reference: the supplement of paper PMC10126150
